Measurements from PubChem BioAssay AID1508624 (National Center for Advancing Translational Sciences (NCATS), 2021).
The whole screen tested about 48,000 compounds, of which about 120 (0.25%) were called active. Another 4% or so got no clear call; they are omitted. Calls follow the shape of the dose curve; as a rule, active = well fitted activation curve with a large enough effect; inconclusive = small, poorly fitted or top-dose-only effect, or another doubt; inactive = no such curve, though single readings can be large or run the other way. The list shows a part of the results.

assay: Primary qHTS for Identification of Small Molecule Activators of Huntingtin-Antisense Promoter Activity; details: HEK293 HTT-AS promoter firefly luciferase reporter (activity 0% = vehicle and -100% = no light), 24 h; series mostly up to 57.5 µM; activity change, positive = activation: at the top concentration; also: nearly all actives have a fitted effect of over 55% in size
Method in brief: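 HEK293 cells carrying firefly luciferase reporters were seeded at 2,500 per well in Opti-MEM and cultured for 24 h. They were then treated with compounds at up to 57.5 uM final for 24 h at 37 degrees C before Dual-Glo luminescence readout.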

Activity change, positive = activation, inactive:
O=C(NCc1ccccc1Cl)NCc1noc2ccccc12 22.9%
Cc1ccccc1NC(=O)Cn1c(=O)n(CC2CCC(C(=O)NCCc3ccccc3)CC2)c(=O)c2ccccc21 (stereo not given) -7.46%
Cc1ccc(CNS(=O)(=O)c2ccc(-c3cc(C(F)(F)F)on3)s2)cc1 -6.66%
Cc1ccc(N2C(=O)[C@@H]3CSC(c4ccc(F)cc4)N3C2=O)cc1 (stereo not given in full) -32.2%
COc1ccc(Cl)cc1NC(=O)Cn1c(=O)n(CCC(=O)NCc2ccc3c(c2)OCO3)c(=O)c2ccccc21 -52.1%
O=C(Nc1ccc(Cl)c(-c2nc3cc(Cl)ccc3o2)c1)c1cc([N+](=O)[O-])ccc1N1CCOCC1 -25.3%
COc1cc(NC(=O)COCc2cc(-c3ccc(F)cc3)on2)cc(OC)c1OC -27.4%
Cc1nn(C(C)(C)C)c(OC(=O)C(C)(C)C)c1Sc1ccccc1 -9.6%
CCOc1ccc(C(=O)c2c(N)c(-c3nc(-c4ccc5c(c4)OCO5)cs3)c3ccccn23)cc1 5.41%
COC(=O)Cn1c(=O)c2cccn2c2cccnc21 -6.39%
Cc1ccsc1CN(C(=O)c1oc2cc(Br)ccc2c1C)C1CCS(=O)(=O)C1 (stereo not given) -46.7%
Cc1cc(C(=O)Nc2ccc(C(C)C)cc2)c2c(C)nn(-c3ccccc3)c2n1 1.46%
COc1cccc(CNC(=O)CSc2c3c(nc4cc(Cl)ccc24)CCCC3)c1 -30%
CN(C)CCCN(C(=O)c1ccc2c(c1)OCCO2)c1nc2ccccc2s1 25.5%
CCOc1ccccc1NC(=O)Cn1cc(C(=O)c2ccc(Cl)cc2)c(=O)c2ccc(C)nc21 -10.4%
COc1ccc(Cn2c(=O)c3oc4ccccc4c3n(Cc3cccc(C)c3)c2=O)cc1 -14.3%
COc1ccccc1CNc1ccc(-c2nc(-c3ccco3)no2)cc1[N+](=O)[O-] 7.91%
Cc1cccc2c(=O)cc(CSc3ccccc3NC(=O)c3cccc(F)c3)[nH]c12 -10.3%
CC(C)OC(=O)CCCC=CC[C@@H]1[C@H](C=C[C@@H](O)COc2cccc(C(F)(F)F)c2)[C@H](O)C[C@@H]1O -33.9%
COc1ccc(NC(=O)Cn2cnc3c(oc4ccccc43)c2=O)cc1OC 13.8%
CC(C)NC(=O)C1CCC(Cn2c(=O)c3sccc3n(CC(=O)NCc3ccccc3)c2=O)CC1 (stereo not given) -9.6%
CCCOc1c(Cl)cc(C(=O)N(Cc2cccc(OC)c2)C2CCS(=O)(=O)C2)cc1Cl (stereo not given) -11.1%
CCOc1ccc(NC(=O)c2cnc(N3CCCCC3)c3ccccc23)cc1 -17.6%
CCOC(=O)c1c(-c2ccccc2)csc1NC(=O)c1cc(-c2ccc(F)cc2)on1 -0.979%
O=C(NCc1ccc2c(c1)OCO2)c1ccc2c(c1)N(Cc1ccccc1)C(=O)c1ccccc1S2=O (stereo not given) -12%
CC(C)n1cnc(S(=O)(=O)N2CCCC(C(=O)NCc3ccccc3Cl)C2)c1 (stereo not given) -6.41%
CN(c1ccccc1)S(=O)(=O)c1nnc(NC(=O)c2ccccc2)s1 -2.79%
Cc1ccc(C(=O)N(CCCN)[C@@H](c2oc3cc(Cl)ccc3c(=O)c2Cc2ccccc2)C(C)C)cc1 -30.8%
COCCCNc1nc2cc(OC)c(OC)cc2c2nc(-c3ccccc3)nn12 -9.91%
Cc1ccccc1N1CC(C(=O)Nc2ccc(Br)cc2)CC1=O (stereo not given) -13.6%
COc1ccc(CNC(=O)CN2N=C(c3ccccc3)CCC2=O)c(OC)c1 -7.84%
CCn1c(=O)c(=O)n(CC)c2cc(N3CCCCC3)c(NC(=O)c3ccc(Cl)cc3)cc21 -4.94%
Cc1nnc(N2CCCC(C(=O)NCc3ccccc3F)C2)c2nn(-c3ccc(Cl)cc3)c(C)c12 (stereo not given) -9.53%
COc1ccc(C(=O)NCc2nnc(SCC(=O)Nc3ccccc3)n2-c2ccccc2)cc1 -7.46%
COc1cc(Cl)c(C)cc1NC(=O)c1ccc2c(SCC(=O)O)c3c(nc2c1)CCCC3 -1.2%
O=C(CSc1n[nH]c(-c2ccccc2)n1)NCCCc1ccccc1 -20.9%
Cc1ccc(-n2nnc(-c3nsc(NC(=O)c4cccc(Cl)c4)n3)c2C)cc1C -16.5%
CC(C)CCNC(=O)c1ccc2c(c1)N(Cc1cccc(Cl)c1)C(=O)c1ccccc1S2 -26.4%
CCCC(=O)n1nc(-c2ccco2)nc1NCc1ccccc1Cl 21.5%
Cc1cc2nn(-c3ccc(F)cc3)nc2cc1NC(=O)c1cccc2ccccc12 6.66%
O=C(Nc1nnc(S(=O)(=O)N2CCOCC2)s1)c1ccccc1Cl -14.5%
Nc1nc(N)c2nc(-c3ccccc3)c(N)nc2n1 18.4%
CC(=O)Nc1ccc(NC(=O)C2CCCN2S(=O)(=O)c2ccc3c(c2)CCCC(=O)N3)cc1 (stereo not given) 5.19%
COc1ccc(OC)c(CCNC(=O)c2cc3c(=O)oc4ccc(C)cc4c3s2)c1 -0.427%
O=C(Nc1ccc2nc(SCc3ccccc3)sc2c1)c1ccccc1F -14.4%
O=C(Nc1ccc(F)c(Cl)c1)c1cc(S(=O)(=O)N2CCc3ccccc3C2)ccc1F -21.1%
Cc1ccc(OCC(=O)Nc2ccc3c(c2)nc(CCNC(=O)c2ccco2)n3C)cc1 -13.5%
COc1ccc(N2CCN(C(=O)CN3C(=O)CSc4c3c(C)nn4-c3ccccc3)CC2)cc1 -4.6%
O=C(Nc1ccc2oc(-c3cccnc3)nc2c1)c1ccc(-c2ccc(OC(F)(F)F)cc2)o1 -10.8%
CCOc1cccc(CC(=O)N2CCc3c([nH]c4ccccc34)C2c2ccccc2)c1OCC (stereo not given) -30.7%
CCC1CCCCN1CCCNC(=O)c1ccc2c(c1)N(Cc1ccccc1)C(=O)c1ccccc1S2(=O)=O (stereo not given) -11.2%
CCn1nc(C)c2c(-c3ccccc3)cc(=O)n(C(C)C(=O)NCc3cccc(OC)c3)c21 (stereo not given) -14%
CCN(CC)c1ccc(CN(C(=O)Cc2coc3ccc(C)cc23)C2CCS(=O)(=O)C2)cc1 (stereo not given) -28.4%
CCc1ccc(OCCCn2c(-c3ccc(Cl)cc3)nc3ccccc3c2=O)cc1 -15%
Cc1ccc(-c2nc3scc(CCNS(=O)(=O)c4ccc(F)c(C)c4)n3n2)cc1 -26.4%
Cc1ccc(Cl)cc1NC(=O)CSc1ccc(C(=O)O)cn1 15.8%
CCN(CC)c1ccc(NC(=O)c2cc(C)nc3c2c(C)nn3-c2cccc(F)c2)c(C)c1 -13.1%
c1ccc(-c2nnc(CN3CCN(c4ccccn4)CC3)o2)cc1 0.258%
Cc1ccc(OCC(=O)OCc2cc(=O)n3nc(C4CCCCC4)sc3n2)cc1C -6.6%
O=C1CC(c2ccccc2)Sc2nc(-c3ccc(F)cc3)nn21 (stereo not given) 8%
